In PMC9911399, “Two distinct binding modes provide the RNA-binding protein RbFox with extraordinary sequence specificity”:
Numbering of substitutions follows the chain as printed; changes in the protein carry UniProt numbers. The list shows a part of the results.

T1: RBFOX1 RRM RbFoxmut (Fox-RRM*) (Homo sapiens, UniProt Q9NWB1 109-208, R118D;E147R;N151S;E152T)
T1 sequence: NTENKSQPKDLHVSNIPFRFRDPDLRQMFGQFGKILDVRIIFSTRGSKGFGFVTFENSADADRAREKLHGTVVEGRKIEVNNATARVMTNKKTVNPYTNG

B1: CGAUACA (DNA:RNA)
RNA: GGGAGACCGGAAUUCAGAUUGUCCCGAUACAUUAAAUCCCGUCGUAGCCACCA
DNA 1: CAATCTGAATTCCGGTCTCCC
DNA 2: TGGTGGCTACGACGGGATT
B2: GUUAGAA (DNA:RNA)
RNA: B1 RNA with C25G, G26U, A27U, U28A, A29G, C30A
DNA 1: CAATCTGAATTCCGGTCTCCC
DNA 2: TGGTGGCTACGACGGGATT
B3: AUACAGG (DNA:RNA)
RNA: B1 RNA with C25A, G26U, U28C, C30G, A31G
DNA 1: CAATCTGAATTCCGGTCTCCC
DNA 2: TGGTGGCTACGACGGGATT
B4: UGGAUAG (DNA:RNA)
RNA: B1 RNA with C25U, A27G, U28A, A29U, C30A, A31G
DNA 1: CAATCTGAATTCCGGTCTCCC
DNA 2: TGGTGGCTACGACGGGATT
B5: CCCUUUG (DNA:RNA)
RNA: B1 RNA with G26C, A27C, A29U, C30U, A31G
DNA 1: CAATCTGAATTCCGGTCTCCC
DNA 2: TGGTGGCTACGACGGGATT
B6: AACCCGU (DNA:RNA)
RNA: GGGAGACCGGAAUUCAGAUUGUCCAACCCGUUUAAAUCCCGUCGUAGCCACCA
DNA 1: CAATCTGAATTCCGGTCTCCC
DNA 2: TGGTGGCTACGACGGGATT
B7: AGCAUUU (DNA:RNA)
RNA: B6 RNA with A26G, C28A, C29U, G30U
DNA 1: CAATCTGAATTCCGGTCTCCC
DNA 2: TGGTGGCTACGACGGGATT
B8: CCGUAGA (DNA:RNA)
RNA: B1 RNA with G26C, A27G, C30G
DNA 1: CAATCTGAATTCCGGTCTCCC
DNA 2: TGGTGGCTACGACGGGATT
B9: AUUGGAG (DNA:RNA)
RNA: B6 RNA with A26U, C27U, C28G, C29G, G30A, U31G
DNA 1: CAATCTGAATTCCGGTCTCCC
DNA 2: TGGTGGCTACGACGGGATT

These binders were tested against T1, RBFOX1 RRM RbFoxmut (Fox-RRM*) (assay: EMSA; HiTS-Eq, 1 nM pool, 10 min; buffer printed only for the single-RNA assays: 10 mM Tris pH 7.5, 150 mM NaCl, 3.4 mM EDTA, 0.001% NP-40, 30 C). Settings: tags: His6 N-terminal (pET28a); label: 5' 32P.
Summary of the method: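 Purified RbFox RRM (wild type or mutant) was equilibrated for 10 min in 50 µL with 1 nM of a 5′-radiolabelled pool of RNA with 7 randomized nucleotides, its flanks annealed to DNA oligonucleotides, across increasing protein concentrations. Free RNA was separated by 8% native PAGE, excised, reverse-transcribed, PCR-barcoded and sequenced on an Illumina HiSeq 2500. Relative association constants came from read-count changes of each variant against the control reaction, normalised to the cognate motif.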
In the case of B1, the binding signal is reported as 0.0906 KA relative to UGCAUGU. With B2 the binding signal was 0.104 KA relative to UGCAUGU. In the case of B3, the binding signal is reported as 0.117 KA relative to UGCAUGU. B4 was tested, and the binding signal was 0.144 KA relative to UGCAUGU. With B5 the binding signal was 0.0801 KA relative to UGCAUGU. In the case of B6, the binding signal is reported as 0.0816 KA relative to UGCAUGU. With B7 the binding signal was 0.112 KA relative to UGCAUGU. With B8 the binding signal was 0.13 KA relative to UGCAUGU. With B9 the binding signal was 0.124 KA relative to UGCAUGU.
